Sequences with one replicate were seen in a single cluster, so their values are uncertain.
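Further: ATP exposure 15 min at 22 °C before imaging.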

For the data set, the system named is ATP. The data set can be described thus: switch fluorescence ratio, 500 uM ATP over buffer (Cy3 cluster intensity, sum of 5 cycles each) (fold (ratio)); higher = stronger signal-on switching upon ATP binding; sequences stand for … in TCGTCGGCAGCGTCAGATGTGTATAAGAGACAGTTTTTTTTTTTTTTTTTTTTTTTTT…TC. Conditions: aptamer strand: ATP DNA aptamer (quencher-CACCTGGGGGAGTATTGCGGAGGAAGG + anchor), 100 nM annealed; ATP concentration: 500 uM; one replicate. In a few lines: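 Imaging in selection buffer was followed by imaging after 15 min with 500 uM ATP at 22 °C, for Cy3-labelled switching-strand clusters annealed to 100 nM quencher-labelled ATP aptamer on a modified Illumina MiSeq flow-cell. Five of these buffer/ATP cycles ran, separated by NaOH stripping and re-annealing. The fluorescence ratio per cluster is summed target-cycle over summed buffer-cycle Cy3 intensity, averaged per switch-domain sequence; clusters outside 100-1000 RFU were removed.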
As to ACATAGACCA, the switch fluorescence ratio is 1.06. The value for AGCTAGATAA was 0.96; that for GGCCACAGGC was 0.979; that for TCGGCGTTTT was 1.22. Next, TCGCTCACTG: 1.05. Take TGAAAAGAAA: the switch fluorescence ratio was found to be 0.937.

In the case of CGTCGTTTTG, the switch fluorescence ratio amounted to 0.962.

In the case of GGGCAAGATT, the switch fluorescence ratio came to 1.04. CTCTCTTAAC: the switch fluorescence ratio turned out to be 1.06. Consider CATAAGCCGC, for which the switch fluorescence ratio was 1.08.

On to ATATCGAGAT, for which the switch fluorescence ratio was found to be 0.958. Take TCCAGGTTGT: the switch fluorescence ratio is 1.49. The value for CTCGTTGACC was 1.02; that for CCCCTCATGA was 1; that for GCATGCGAGT was 1.24. The value for TACGCGGTA was 1.83; that for GTAACAATGA was 1.02; that for TCATCGAAAT was 1.01. Next, CCTGTTGGCG: 1.04. With TGTGAAATAA, the switch fluorescence ratio worked out at 1.01. With CAGCCGCTCT, the switch fluorescence ratio turned out to be 1.04.

On to AACGGTTTT, for which the switch fluorescence ratio came out at 1.03.

As for GCTAGCCGGT, the switch fluorescence ratio stood at 0.971. On to TTGCCCGGGT, for which the switch fluorescence ratio is 0.98. TCAGCCTTGA: the switch fluorescence ratio stood at 0.964. Regarding CGCAAAAATA, the switch fluorescence ratio was 1.03. For AAAGTCGGGA, the switch fluorescence ratio is 1. Next, AGGTCTGTGT: 0.954; CTCGCATCAA: 1.7; TTCTCAGCCC: 1.05. CGTGATAGTA: the switch fluorescence ratio came to 0.938. With TGAGATTAAG, the switch fluorescence ratio was 0.992. The value for AGTGTAGC was 1. On to CATGACAGCG, for which the switch fluorescence ratio came out at 1.07. The value for AATTAGGACC was 1.01; that for TTCGGTCATC was 0.936. On to TTATTCGGGC, for which the switch fluorescence ratio is 1. Take TTGAGAATTT: the switch fluorescence ratio turned out to be 0.949. On to CCAGGCACCA, for which the switch fluorescence ratio turned out to be 1.07. Next, GGCGTAGACA: 1; CGCATGCACC: 1.75; TAGGCGGCTG: 0.987.

In the case of GCTTATGGGT, the switch fluorescence ratio came out at 1.02.

Turning to GCGGGTCTTG, the switch fluorescence ratio stood at 1. CGTTGGTAGC: the switch fluorescence ratio worked out at 0.955. As to AACTAGAAGG, the switch fluorescence ratio was found to be 0.944. With CGCTTGCGCA, the switch fluorescence ratio was determined as 1.04. Regarding TCCATTTTCT, the switch fluorescence ratio came to 0.968. On to AGTAGCCCCG, for which the switch fluorescence ratio was 0.951. With ACTCACAATG, the switch fluorescence ratio stood at 1.39. The value for TCAGTATTAT was 1. Next, TTGACTCCTT: 1.08; CGAATTATTC: 1.01.

AGAGAAACTG: the switch fluorescence ratio worked out at 0.987. For ATCAAGGTAG, the switch fluorescence ratio turned out to be 1.02. Next, GAAATAGCAG: 0.987.

On to GGTATCATGT, for which the switch fluorescence ratio came out at 0.998. Take TAACACAGGG: the switch fluorescence ratio worked out at 1.07. The value for TCTTAGCTCA was 1.11; that for TCAGACCCCT was 1.03; that for TTTTCTACCT was 1.14. On to TATCGTAGTA, for which the switch fluorescence ratio turned out to be 0.987. Next, CCTCAATATT: 2.23. Next, CTCAGAGGTG: 1.36; CCGTGCCTGT: 1.04. Consider GCACCTTCCA, for which the switch fluorescence ratio stood at 2.06. As to TAGGTAGGAA, the switch fluorescence ratio amounted to 0.982. ATAACGTTT: the switch fluorescence ratio came to 1.01. Next, GTTACGTAAG: 1.07; TTCTCATAAG: 0.988; TTGTCGTAGG: 0.953. The value for CGTTCATCAA was 1; that for CTAAAGAGT was 1.01; that for AGTAGCAGGG was 1.04.

For the sequence TTTCATCGAT, the switch fluorescence ratio was 1.02.

Take ATAATTGGTC: the switch fluorescence ratio was 0.977. With ACCGCATAAA, the switch fluorescence ratio was determined as 1.39. The value for ACAAAGTGGG was 1.01. TTATTGGTT: the switch fluorescence ratio was found to be 1.05.

For GTCAATAGTG, the switch fluorescence ratio came out at 1.05. Next, TCTGGTCCCC: 0.995; AAGGGCCACC: 1.05. Next, CGTCATCTTA: 0.922; TTATTTGGAA: 1.02. TAAAGGAAGA: the switch fluorescence ratio came out at 0.975. GCAGACGTGA: the switch fluorescence ratio came out at 0.991. The value for TTGGAATACG was 1.14; that for GTCAGGAGGC was 0.981; that for ACAAATGGAG was 1.01. Next, CATTTTTGGT: 0.974.

On to GTGGAAGTGT, for which the switch fluorescence ratio stood at 0.983. Next, GTTTGGTTCC: 1.07; TTATTAGGCT: 1.05; CGGTTTCTCA: 0.992. Consider GCAACTGCGA, for which the switch fluorescence ratio came out at 1.11. In the case of GTATGGAG, the switch fluorescence ratio was found to be 1.02. The value for AACAAGAAAC was 1.05; that for GTATCATCA was 1.04. The value for TCCAGATTT was 0.953; that for AATCGGCTTG was 1.02. For AGTTGAAGCT, the switch fluorescence ratio worked out at 1.03. Consider GTGCAAAGGG, for which the switch fluorescence ratio was found to be 0.977. For TACTGCCAT, the switch fluorescence ratio was found to be 1.11. GCAGTTTAT: the switch fluorescence ratio was determined as 0.965.

ACTTCATCCA: the switch fluorescence ratio came to 1.35. The value for GTCCGTCC was 0.994. Next, TCTCTAGAGC: 0.999; CAGTGTTCGA: 1; ACTGAAATAA: 1.02. In the case of CCAAGTCACA, the switch fluorescence ratio came out at 1.1. The value for GTCGTACCGA was 1.02; that for TGAGGCAGCC was 1.06; that for GCTGATGGA was 1. The value for GACGAACGGA was 1.28; that for TATCGGGAGT was 1.01. Regarding TAATGGCATT, the switch fluorescence ratio amounted to 1.01.

CGCACGATTT: the switch fluorescence ratio was 1.35. For the sequence CGGAGGAGTC, the switch fluorescence ratio is 1.01. Next, AGGTGTGGCA: 0.986; ATCAGCGTGC: 1.02.
